T1: intermediate-affinity hIL-2 receptor (IL-2Rβγ) on TF1+IL-2Rβ cells (human, UniProt P14784 27-551; P31785 23-369)
T1 sequence 1: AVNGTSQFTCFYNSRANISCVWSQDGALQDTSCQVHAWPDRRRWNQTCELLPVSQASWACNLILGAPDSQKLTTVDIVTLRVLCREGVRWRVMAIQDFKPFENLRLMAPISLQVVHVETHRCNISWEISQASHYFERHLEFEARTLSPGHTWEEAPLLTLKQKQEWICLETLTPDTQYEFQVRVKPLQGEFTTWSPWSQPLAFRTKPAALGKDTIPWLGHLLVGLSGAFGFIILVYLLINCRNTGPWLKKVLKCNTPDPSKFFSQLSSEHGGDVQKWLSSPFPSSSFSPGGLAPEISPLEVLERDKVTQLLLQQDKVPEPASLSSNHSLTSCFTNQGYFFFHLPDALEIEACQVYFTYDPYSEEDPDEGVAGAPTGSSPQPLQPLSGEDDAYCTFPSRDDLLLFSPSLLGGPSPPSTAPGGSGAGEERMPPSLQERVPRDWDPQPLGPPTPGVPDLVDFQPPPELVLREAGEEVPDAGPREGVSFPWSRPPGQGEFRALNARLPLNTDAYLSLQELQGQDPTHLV
T1 sequence 2: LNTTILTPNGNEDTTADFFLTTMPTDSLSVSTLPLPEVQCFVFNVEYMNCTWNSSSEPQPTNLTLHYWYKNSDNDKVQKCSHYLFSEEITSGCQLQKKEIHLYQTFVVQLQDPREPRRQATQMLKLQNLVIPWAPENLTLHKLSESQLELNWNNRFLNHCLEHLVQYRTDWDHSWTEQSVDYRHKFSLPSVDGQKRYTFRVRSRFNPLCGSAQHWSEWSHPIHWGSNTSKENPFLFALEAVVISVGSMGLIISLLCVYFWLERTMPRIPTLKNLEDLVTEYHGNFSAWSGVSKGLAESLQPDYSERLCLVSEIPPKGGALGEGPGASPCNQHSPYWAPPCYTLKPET

T2: high-affinity hIL-2 receptor (IL-2Rαβγ) on NK-92 cells (human, UniProt P01589 22-272; P14784 27-551; P31785 23-369)
T2 sequence 1: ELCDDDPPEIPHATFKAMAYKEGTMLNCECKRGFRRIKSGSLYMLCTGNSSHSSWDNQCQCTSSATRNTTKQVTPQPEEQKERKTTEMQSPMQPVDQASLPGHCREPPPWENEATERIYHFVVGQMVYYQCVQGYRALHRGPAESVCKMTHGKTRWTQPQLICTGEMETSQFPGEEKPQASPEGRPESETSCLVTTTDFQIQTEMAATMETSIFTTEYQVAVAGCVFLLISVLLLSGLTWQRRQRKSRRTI
T2 sequence 2: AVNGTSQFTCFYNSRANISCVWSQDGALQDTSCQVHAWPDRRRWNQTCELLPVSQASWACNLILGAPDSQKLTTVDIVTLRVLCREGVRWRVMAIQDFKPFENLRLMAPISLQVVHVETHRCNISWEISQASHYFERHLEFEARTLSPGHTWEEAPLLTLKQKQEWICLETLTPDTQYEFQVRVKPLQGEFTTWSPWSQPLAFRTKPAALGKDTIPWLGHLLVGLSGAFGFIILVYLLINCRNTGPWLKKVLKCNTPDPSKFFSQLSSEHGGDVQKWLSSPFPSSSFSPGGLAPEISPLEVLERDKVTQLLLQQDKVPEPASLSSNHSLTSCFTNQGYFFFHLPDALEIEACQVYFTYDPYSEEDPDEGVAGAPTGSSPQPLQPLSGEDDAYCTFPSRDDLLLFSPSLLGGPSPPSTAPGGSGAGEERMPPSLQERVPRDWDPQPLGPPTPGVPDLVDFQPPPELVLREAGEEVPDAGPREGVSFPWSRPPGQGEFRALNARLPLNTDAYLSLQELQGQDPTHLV
T2 sequence 3: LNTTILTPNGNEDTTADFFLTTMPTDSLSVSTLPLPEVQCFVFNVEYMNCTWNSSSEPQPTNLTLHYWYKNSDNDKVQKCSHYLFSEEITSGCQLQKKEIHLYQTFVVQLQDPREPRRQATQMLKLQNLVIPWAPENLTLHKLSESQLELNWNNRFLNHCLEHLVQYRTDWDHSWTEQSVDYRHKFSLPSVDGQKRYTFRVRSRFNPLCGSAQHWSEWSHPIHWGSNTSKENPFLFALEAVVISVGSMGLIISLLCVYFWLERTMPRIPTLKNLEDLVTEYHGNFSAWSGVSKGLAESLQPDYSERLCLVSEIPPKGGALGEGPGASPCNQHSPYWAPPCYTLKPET


What was measured:
Experiment in all cases: cell-based or functional assay
[1] = target: T1, intermediate-affinity hIL-2 receptor …
[2] = target: T1, intermediate-affinity hIL-2 receptor …; remark: listed apart in the source
[3] = target: T2, high-affinity hIL-2 receptor (IL-2Rαβγ) …

| Agonistic Activity (TF1 + IL-2Rβ) [1] [%] | Fold change from rhIL-2 (TF1 + IL-2Rβ) [1] [fold] | Fold decrease from rhIL-2 (TF1 + IL-2Rβ + hPD-1) [2] [fold] | Fold change from rhIL-2 (NK-92) [3] [fold] | Agonistic Activity (NK-92) [3] [%] | Binder |
| --- | --- | --- | --- | --- | --- |
| – | > 10000 | ~1 | – | – | 2H7-hIgG4-df-hIL-2 (T3A/D20A/R38E/C125A) (other) heavy: EVQLLESGGGLVQPGGSLRLSCAASGFTFKDYCMTWVRQAPGKGLEWVSAIVYSGGSTYYADSVKGRFTISRDNSKNTLYLQMNNLRAEDTAVYYCAKYTRASYFYDAMDVWGQGTTVTVSSASTKGPSVFPLAPCSRSTSESTAALGCLVKDYFPEPVTVSWNSGALTSGVHTFPAVLQSSGLYSLSSVVTVPSSSLGTKTYTCNVDHKPSNTKVDKRV[not shown - human IgG4 Fc with S228P (EU numbers)]APASSSTKKTQLQLEHLLLALQMILNGINNYKNPKLTEMLTFKFYMPKKATELKHLQCLEEELKPLEEVLNLAQSKNFHLRPRDLISNINVIVLELKGSETTFMCEYADETATIVEFLNRWITFAQSIISTLT light: EIVLTQSPGTLSLSPGERATLSCRASQSIGKSFLAWYQQKPGQAPRLLIYDASTRAADIPARFSGSGSGTDFTLTISSLEPEDFAVYYCQQYYDWPPLSFGGGTKVEIKRTVAAPSVFIFPPSDEQLKSGTASVVCLLNNFYPREAKVQWKVDNALQSGNSQESVTEQDSKDSTYSLSSTLTLSKADYEKHKVYACEVTHQGLSSPVTKSFNRGEC |
| – | – | ~1 | 520 | – | 2H7-hIgG4-df-hIL-2 (T3A/R38E/I92K/C125A) (other) heavy: EVQLLESGGGLVQPGGSLRLSCAASGFTFKDYCMTWVRQAPGKGLEWVSAIVYSGGSTYYADSVKGRFTISRDNSKNTLYLQMNNLRAEDTAVYYCAKYTRASYFYDAMDVWGQGTTVTVSSASTKGPSVFPLAPCSRSTSESTAALGCLVKDYFPEPVTVSWNSGALTSGVHTFPAVLQSSGLYSLSSVVTVPSSSLGTKTYTCNVDHKPSNTKVDKRV[not shown - human IgG4 Fc with S228P (EU numbers)]APASSSTKKTQLQLEHLLLDLQMILNGINNYKNPKLTEMLTFKFYMPKKATELKHLQCLEEELKPLEEVLNLAQSKNFHLRPRDLISNINVKVLELKGSETTFMCEYADETATIVEFLNRWITFAQSIISTLT light: EIVLTQSPGTLSLSPGERATLSCRASQSIGKSFLAWYQQKPGQAPRLLIYDASTRAADIPARFSGSGSGTDFTLTISSLEPEDFAVYYCQQYYDWPPLSFGGGTKVEIKRTVAAPSVFIFPPSDEQLKSGTASVVCLLNNFYPREAKVQWKVDNALQSGNSQESVTEQDSKDSTYSLSSTLTLSKADYEKHKVYACEVTHQGLSSPVTKSFNRGEC |
| 80 | > 10000 | ~1 | – | – | C51E6-5-hIgG4-L6-hIL-2 (D20A/R38E) (other) heavy: QVQLVQSGSELKKPGASVKVSCKASGYSLYGTSMHWVRQAPGQGLEWMGYISPFTGRATYAQGFTGRFVFSLDTSVSTAYLQISSLKAEDTAVYYCARDYDYRYYYAMDYWGQGTTVTVSSASTKGPSVFPLAPCSRSTSESTAALGCLVKDYFPEPVTVSWNSGALTSGVHTFPAVLQSSGLYSLSSVVTVPSSSLGTKTYTCNVDHKPSNTKVDKRV[not shown - about 350 residues with a human IgG4 Fc and changes] light: EIVLTQSPDFQSVTPKEKVTITCTASESVPPQFLHWYQQKPDQSPKLLIYASRERASGVPSRFSGSGSGTDFTLTINSLEAEDAATYYCHQFHRSPLTFGGGTKLEIKRTVAAPSVFIFPPSDEQLKSGTASVVCLLNNFYPREAKVQWKVDNALQSGNSQESVTEQDSKDSTYSLSSTLTLSKADYEKHKVYACEVTHQGLSSPVTKSFNRGEC |

Further lines, the binder ahead of its results:

| Binder | Agonistic Activity (TF1 + IL-2Rβ) [1] [%] | Fold change from rhIL-2 (TF1 + IL-2Rβ) [1] [fold] | Fold decrease from rhIL-2 (TF1 + IL-2Rβ + hPD-1) [2] [fold] | Fold change from rhIL-2 (NK-92) [3] [fold] | Agonistic Activity (NK-92) [3] [%] |
| --- | --- | --- | --- | --- | --- |
| 2A3.H7-hIgG4-df-hIL-2 (D20A/R38E) (other) heavy: EVQLLESGGGLVQPGGSLRLSCAASGFTFKDYCMTWVRQAPGKGLEWVSAIVYSGGSTYYADSVKGRFTISRDNSKNTLYLQMNNLRAEDTAVYYCAKYTRASYFYDAMDVWGQGTTVTVSSASTKGPSVFPLAPCSRSTSESTAALGCLVKDYFPEPVTVSWNSGALTSGVHTFPAVLQSSGLYSLSSVVTVPSSSLGTKTYTCNVDHKPSNTKVDKRV[not shown - about 350 residues with a human IgG4 Fc] light: EIVLTQSPGTLSLSPGERATLSCRASQSIGRSFLAWYQQKPGQAPRLLIYDASTRAADIPARFSGSGSGTDFTLTISSLEPEDFAVYYCQQYYDWPPLSFGGGTKVEIKRTVAAPSVFIFPPSDEQLKSGTASVVCLLNNFYPREAKVQWKVDNALQSGNSQESVTEQDSKDSTYSLSSTLTLSKADYEKHKVYACEVTHQGLSSPVTKSFNRGEC | 60 | ~6600 | ~0 | – | – |
| 1H9-hIgG4-df-hIL-2 (D20A/R38E) (other) heavy: EVQLLESGGGLVQPGGSLRLSCVGSGFNLKDYCMTWVRQAPGKGLEWVSAIVYSGGSTYYADSVKGRFTISRDNSKNTLYLQMNSLRAEDTAVYYCAKYTRGSYFYDAMDVWGQGTTVTVSSASTKGPSVFPLAPCSRSTSESTAALGCLVKDYFPEPVTVSWNSGALTSGVHTFPAVLQSSGLYSLSSVVTVPSSSLGTKTYTCNVDHKPSNTKVDKRV[not shown - about 350 residues with a human IgG4 Fc] light: EIVLTQSPGTLSLSPGERATLSCRASQSIGRSFLAWYQQKPGQAPRLLIYDASTRAADIPDRFSGSGSGTDFTLTINRLEPEDFAVYYCQQYYDWPPLTFGGGTKVEIKRTVAAPSVFIFPPSDEQLKSGTASVVCLLNNFYPREAKVQWKVDNALQSGNSQESVTEQDSKDSTYSLSSTLTLSKADYEKHKVYACEVTHQGLSSPVTKSFNRGEC | 90 | ~9770 | ~0 | – | – |
| 1H3-hIgG4-L6-hIL-2 (D20A/R38P) (other) heavy: EVQLVESGGGLVQPGRSLKLSCAVSGFTFSDYAMAWVRQAPKKGLEWVATISYDGSRTYYRDSVKGRFTISRDNAKITLYLQMDSLRSEDTATYYCARHGSGYFDYWGQGVMVTVSSASTKGPSVFPLAPCSRSTSESTAALGCLVKDYFPEPVTVSWNSGALTSGVHTFPAVLQSSGLYSLSSVVTVPSSSLGTKTYTCNVDHKPSNTKVDKRV[not shown - about 350 residues with a human IgG4 Fc and changes] light: DTVLTQSPALAVSPGERVTISCRASESVRTGVHWYQQKPGQQPKLLIYGASNLESGVPARFSGSGSGTDFTLTIDPVEADDTATYFCQQSWNDPFTFGSGTKLEIKRTVAAPSVFIFPPSDEQLKSGTASVVCLLNNFYPREAKVQWKVDNALQSGNSQESVTEQDSKDSTYSLSSTLTLSKADYEKHKVYACEVTHQGLSSPVTKSFNRGEC | – | ~4130 | ~3070 | > 10000 | 80 |
| 1H3-hIgG1-L6-hIL-2 (T3A/F42A/Y45A/L72G/C125A) (other) heavy: EVQLVESGGGLVQPGRSLKLSCAVSGFTFSDYAMAWVRQAPKKGLEWVATISYDGSRTYYRDSVKGRFTISRDNAKITLYLQMDSLRSEDTATYYCARHGSGYFDYWGQGVMVTVSS[not shown - human IgG1 constant region]SGGGGSAPASSSTKKTQLQLEHLLLDLQMILNGINNYKNPKLTRMLTAKFAMPKKATELKHLQCLEEELKPLEEVLNGAQSKNFHLRPRDLISNINVIVLELKGSETTFMCEYADETATIVEFLNRWITFAQSIISTLT light: DTVLTQSPALAVSPGERVTISCRASESVRTGVHWYQQKPGQQPKLLIYGASNLESGVPARFSGSGSGTDFTLTIDPVEADDTATYFCQQSWNDPFTFGSGTKLEIKRTVAAPSVFIFPPSDEQLKSGTASVVCLLNNFYPREAKVQWKVDNALQSGNSQESVTEQDSKDSTYSLSSTLTLSKADYEKHKVYACEVTHQGLSSPVTKSFNRGEC | – | – | ~2 | – | – |
| 1H3-hIgG4-L6-hIL-2 (D20A/R38S) (other) heavy: EVQLVESGGGLVQPGRSLKLSCAVSGFTFSDYAMAWVRQAPKKGLEWVATISYDGSRTYYRDSVKGRFTISRDNAKITLYLQMDSLRSEDTATYYCARHGSGYFDYWGQGVMVTVSSASTKGPSVFPLAPCSRSTSESTAALGCLVKDYFPEPVTVSWNSGALTSGVHTFPAVLQSSGLYSLSSVVTVPSSSLGTKTYTCNVDHKPSNTKVDKRV[not shown - about 350 residues with a human IgG4 Fc and changes] light: DTVLTQSPALAVSPGERVTISCRASESVRTGVHWYQQKPGQQPKLLIYGASNLESGVPARFSGSGSGTDFTLTIDPVEADDTATYFCQQSWNDPFTFGSGTKLEIKRTVAAPSVFIFPPSDEQLKSGTASVVCLLNNFYPREAKVQWKVDNALQSGNSQESVTEQDSKDSTYSLSSTLTLSKADYEKHKVYACEVTHQGLSSPVTKSFNRGEC | – | ~9220 | ~4480 | > 10000 | 90 |

Source: patent publication US20240076343A1 (CEPHALON, published 2024)
